Hit rate of the full screen: of about 280,000 compounds, about 100 (0.036%) were called active. Inconclusive means that the source gave no clear call. Such entries were picked first, then a sample of the others. Calls come from the whole dose curve; as a rule, active = well fitted inhibition curve with a large enough effect in the signal ratio, with a control signal flat (not every such curve was filed as active); inconclusive = small, poorly fitted or top-dose-only effect, or effect the other way, or a change in a side signal; inactive = no such curve, though single readings can be large or run the other way; the % refers to the signal ratio. A potency beside an inconclusive call is a rough fit, not a confirmed value. A note “side channel” means that the fit belongs to a control or component signal, not to the main read-out.
biological target: Muscleblind-like protein 1 (Homo sapiens) (UniProt Q9NR56); assay: qHTS Assay for Inhibitors of MBNL1-poly(CUG) RNA binding; conditions: TR-FRET MBNL1-His/biotin-(CUG)12 binding, 665/545 ratio; series mostly up to 57.5 µM
Summary of the method: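 Inhibition of protein-RNA binding appears as loss of TR-FRET between terbium anti-His antibody on MBNL1-His and streptavidin-XL665 on biotin-(CUG)12. Activity is normalized to buffer-only and uninhibited-complex controls.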
Potency is the fitted concentration of half-maximal effect; tags give direction and shape of the fitted curve or compound fluorescence and quenching.

Sequence of UniProt Q9NR56 (Q9NR56 whole entry, looked up): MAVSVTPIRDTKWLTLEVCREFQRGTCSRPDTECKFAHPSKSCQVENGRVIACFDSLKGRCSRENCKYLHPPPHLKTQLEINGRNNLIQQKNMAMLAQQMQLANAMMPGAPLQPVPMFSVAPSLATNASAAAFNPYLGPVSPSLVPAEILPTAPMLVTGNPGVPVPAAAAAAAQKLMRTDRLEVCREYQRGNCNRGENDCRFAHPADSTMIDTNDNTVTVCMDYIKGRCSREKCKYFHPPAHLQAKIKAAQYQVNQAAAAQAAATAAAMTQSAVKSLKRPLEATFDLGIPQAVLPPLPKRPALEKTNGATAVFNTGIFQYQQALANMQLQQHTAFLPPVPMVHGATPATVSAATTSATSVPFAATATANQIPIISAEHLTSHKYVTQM

Compound	Potency
Cc1ccccc1OCC(=O)NCC(=O)OCC(=O)c1ccc([N+](=O)[O-])cc1	inconclusive: 12.6 µM [quencher, side channel, partial curve]
Fc1ccc(CSc2nnc3ccc(-c4ccncc4)nn23)cc1	inconclusive: 17.8 µM [quencher, side channel, partial curve]
Nc1c(C(=O)C2CC2)sc2nc3c(cc12)CCC3	inconclusive: 20 µM [quencher, side channel, partial curve]
COC(=O)c1ccc(Nc2c([N+](=O)[O-])ccc3nonc23)cc1	inconclusive: 0.794 µM [quencher, side channel, full curve]
COc1ccc2cc(C#N)c(SCC(=O)NNC(=O)Cc3ccccc3)nc2c1	inactive
CC1CCCCC1NC(=S)NC(=O)c1sc2ccccc2c1Cl (stereo not given)	inactive
COc1cc2c(cc1OC)C1(CCCCC1)CN(C)C2	inactive
CCN1CCN(C2=C(Cl)C(=O)N(Cc3ccccc3)C2=O)CC1	inconclusive: 39.8 µM [quencher, side channel, single point]
COc1ccc(Cc2nc3ccccc3n2CC(=O)N/N=C/c2ccc(O)cc2)cc1OC	inconclusive: 4.47 µM [quencher, side channel, full curve, poor fit]
Cc1ccc(C(=O)c2cc3c(cc2N)OCCO3)cc1	inconclusive: 15.8 µM [quencher, single point]
CN(C)c1nc(N)c(C(=O)N=C(N)N)nc1Cl	inconclusive: 12.6 µM [quencher, side channel, partial curve]
COCCCNC(=O)CNC(=O)c1nn(-c2ccc(OC)c(Cl)c2)c(=O)c2ccccc12	inconclusive: 39.8 µM [quencher, side channel, single point]
COCCn1c(SCc2ccc(C(=O)OC)o2)nc2ccccc2c1=O	inconclusive: 0.141 µM [quencher, side channel, full curve, poor fit]
CC(=O)Oc1ccc(N2C(=O)C3C4C=CC(CC4)C3C2=O)cc1[N+](=O)[O-] (stereo not given)	inconclusive: 17.8 µM [quencher, side channel, partial curve]
OCCC1CN(Cc2ccc3nsnc3c2)CCN1C1CCCC1 (stereo not given)	inconclusive: 12.6 µM [quencher, side channel, partial curve]
Fc1cccc(-c2cc3nc4c(c(N5CCOCC5)n3n2)CCCC4)c1	inactive
O=C(CN1CCOCC1)Nc1c(C(=O)C2CC2)oc2ccccc12	inconclusive: 22.4 µM [quencher, side channel, single point]
COc1cc(CN2CCN(c3ccc(C)cc3)CC2)cc([N+](=O)[O-])c1O	inconclusive: 31.6 µM [quencher, side channel, partial curve]
COc1ccc(CNC(=O)c2sc3nc4c(c(C(F)(F)F)c3c2N)CCC4)cc1OC	inactive
O=C(Nc1cccc([N+](=O)[O-])c1)NC1CCS(=O)(=O)C1 (stereo not given)	inconclusive: 12.6 µM [quencher, side channel, partial curve]

Compound	Potency
N#Cc1c(C(F)(F)F)cc(-c2ccc(Cl)cc2)nc1SCC(=O)O	inconclusive: 39.8 µM [quencher, side channel, single point]
CC(C)N1C(=O)CC(Nc2cccc3cccc(N)c23)C1=O (stereo not given)	inconclusive: 28.2 µM [quencher, side channel, single point]
COc1ccccc1C1/C(=C(/O)c2ccccc2)C(=O)C(=O)N1CC(C)C (stereo not given)	inactive
Cc1c(C(=O)N2CCN(c3ccc([N+](=O)[O-])cc3)CC2)sc2ncn(CC(=O)N3CCOCC3)c(=O)c12	inconclusive: 12.6 µM [quencher, side channel, partial curve]
O=C(CSc1ccc2nnc(-c3ccccc3)n2n1)NCc1ccco1	inconclusive: 0.708 µM [quencher, side channel, single point]
Cc1ccc(/C=C/C(=O)Nc2ccc(S(N)(=O)=O)cc2)o1	inconclusive: 20 µM [quencher, side channel, partial curve]
COCCNC(=O)c1nc2c(nnn2Cc2cc(C)ccc2C)c(=O)[nH]1	inconclusive: 200 µM [inhibitor, partial curve, poor fit]
Cn1c[n+](C)cc1-c1ccc(/C(N)=N/O)cc1	inconclusive: 44.7 µM [fluorescent, side channel, partial curve]
CC(/C=C/c1cccc([N+](=O)[O-])c1)=N\NC(=O)c1ccncc1	inconclusive: 7.94 µM [quencher, side channel, full curve]
O=C(O)c1ccc(N2C(=O)c3cccc(Oc4ccc(Cl)cc4)c3C2=O)cc1	inconclusive: 28.2 µM [quencher, side channel, partial curve]
CC(=NC1CC1)C1=C(O)c2ccccc2C1=O	inconclusive: 28.2 µM [quencher, single point]
O=[N+]([O-])c1cccc(C(=Nc2ccccc2)NO)c1	inconclusive: 17.8 µM [quencher, side channel, single point]
CC(=O)c1ccc(N=C2C(=O)Nc3ccccc32)cc1	inconclusive: 28.2 µM [quencher, side channel, partial curve]
Cc1cc(Cc2ccc([N+](=O)[O-])cc2)c(C)cn1	inconclusive: 20 µM [quencher, side channel, single point]
COC(=O)c1ccc(=O)c2nc3/c(=C/O)c(O)cc(=O)c3[nH]c12	inconclusive: 6.31 µM [inhibitor, partial curve]
Cc1c(C(=O)N2CCCC2)c(S(=O)(=O)Nc2cccc(Br)c2)c(C)n1C	inactive
Cc1csc2ncnc(NNC(=O)c3ccc(Cl)cc3)c12	inactive
O=C1NC(=O)/C(=C/c2ccc(-c3cccc([N+](=O)[O-])c3)o2)S1	inconclusive: 12.6 µM [quencher, side channel, partial curve]
O=C(Nc1ncc([N+](=O)[O-])s1)C1CC(=O)N(c2ccc(F)cc2)C1 (stereo not given)	inconclusive: 14.1 µM [quencher, side channel, partial curve]
CCC(=O)N1CCN(c2ccnc3cc(Cl)ccc23)CC1	inactive

Compound	Potency
O=C(c1ccccc1)c1cc(-c2ccccc2)on1	inactive
COc1ccc(C(=O)NCc2nc3ccccc3[nH]2)cc1OC	inactive
COc1cccc(C(=O)NCC(=O)NNc2ncnc(N)c2[N+](=O)[O-])c1	inconclusive: 14.1 µM [quencher, side channel, partial curve, poor fit]
CN(C)c1ccc(N=Cc2nc(-c3ccccc3)oc2OC(=O)c2cccc(Cl)c2)cc1	inconclusive: 0.1 µM [fluorescent, side channel, full curve, poor fit]
O=C(CSc1nc2ccccc2c(=O)n1Cc1ccc(F)cc1)NCc1cccs1	inactive
CCOC(=O)Nc1ccc([N+](=O)[O-])cc1C	inconclusive: 10 µM [quencher, side channel, single point]
C=CCOc1ccc(CN(C)C(=O)CN2C(=O)c3ccccc3C2=O)cc1	inconclusive: 25.1 µM [quencher, side channel, partial curve]
CCOC(=O)N1CCC(Nc2c([N+](=O)[O-])cc(C(=O)O)cc2[N+](=O)[O-])CC1	inconclusive: 12.6 µM [quencher, side channel, partial curve]
O=C/C(=C\Nc1ccc(S(=O)(=O)CCO)cc1)c1nc2cc(Cl)ccc2o1	inconclusive: 31.6 µM [quencher, side channel, single point]
N#Cc1cccc2c1-c1ccccc1/C2=N/NC(N)=S	inconclusive: 8.91 µM [quencher, side channel, partial curve]
CCC1=NN(C(=O)C(=O)NCCc2ccccc2)C(O)(C(F)(F)F)C1 (stereo not given)	inconclusive: 39.8 µM [quencher, side channel, single point]
CCOc1cccc(-c2nnc(SCC(=O)NC3CC3)n2C)c1	inconclusive: 31.6 µM [fluorescent, side channel, single point]
Cc1cc(C)cc(NC(=O)N2CCCN(c3ncccc3[N+](=O)[O-])CC2)c1	inconclusive: 17.8 µM [quencher, side channel, single point]
CCCNC1=C(C)C(=O)CC1	inactive
O=C(/C=C/c1ccccc1)NCC(=O)N/N=C/c1ccccc1[N+](=O)[O-]	inconclusive: 8.91 µM [quencher, side channel, full curve]
O=[N+]([O-])c1cc(-c2ncccn2)c([N+](=O)[O-])s1	inconclusive: 7.08 µM [quencher, side channel, partial curve]
O=[N+]([O-])c1ccccc1NC1CCN(Cc2ccccc2)CC1	inconclusive: 12.6 µM [quencher, side channel, partial curve]
Cn1c(CN2CCCC2)nc2cc(NC(=O)COc3ccc([N+](=O)[O-])cc3)ccc21	inconclusive: 15.8 µM [quencher, side channel, partial curve]
Cc1ccc(-c2cc3ccccc3nc2N2CCCC2)cc1	inconclusive: 3.16 µM [quencher, side channel, single point]
O=C(CN1CCSC1=NCc1ccccc1)c1ccc(Cl)cc1	inconclusive: 0.1 µM [fluorescent, side channel, full curve, poor fit]

Reference: PubChem BioAssay AID2675 (National Center for Advancing Translational Sciences (NCATS), 2010)
